Measurements published in PubChem BioAssay AID1479 (National Center for Advancing Translational Sciences (NCATS), 2009).
Among all 280,000 compounds or so, about 820 (0.29%) were called active. Inconclusive results, whose numbers are uncertain, are shown with a selection of clear calls. Calls follow the shape of the dose curve; as a rule, active = well fitted curve in either direction with a large enough effect; inconclusive = small, poorly fitted or top-dose-only effect; inactive = flat fitted curve, though single readings scatter. Potencies of inconclusive entries are left out as doubtful fits.

Test: Total Fluorescence Counterscreen for Inhibitors of the Interaction of Thyroid Hormone Receptor and Steroid Receptor Coregulator 2
Conditions: TRb/SRC2 Texas Red total fluorescence interference; series mostly up to 106 µM
Outline: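 Flags fluorescent or light-absorbing compounds by total fluorescence, S + 2P, at 555 nm excitation and 632 nm emission. Mixture: 20 nM Texas Red SRC2 peptide, 0.6 uM human TRb LBD, 1 uM T3, 5% DMSO; compound exposure 5 h at ambient temperature.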
Potency is read from the fitted curve at half-maximal effect; tags tell the direction and shape of the fitted curve or compound fluorescence and quenching.

Row | SMILES | Potency
1 | O=[N+]([O-])c1cc(/C=N/Nc2nc3ccccc3[nH]2)c(O)cc1O | inconclusive [falling, full curve, poor fit]
2 | CCN(CC)Cc1cc(O)c(CN(CC)CC)cc1O | inconclusive [quencher, partial curve]
3 | Cc1ccc(Nc2ncnc3c2nc2n3CCCC2)cc1F | inconclusive [falling, full curve, poor fit]
4 | CCN(CC)c1ccc(/C=C(\C#N)c2nc(-c3cccs3)c(NC(C)=O)s2)cc1 | inconclusive [fluorescent, partial curve]
5 | CCOc1ccc(NC(=O)CCSc2ccc3ccccc3n2)cc1 | inconclusive [falling, full curve, poor fit]
6 | CCCc1ccc(OCC(=O)Nc2sc3c(c2C(=O)OCC)CCC(C(C)(C)C)C3)cc1 (stereo not drawn) | active: 10 µM [quencher]
7 | CCN(c1ccccc1)S(=O)(=O)c1ccc(NC(=O)c2nc(S(C)(=O)=O)ncc2Cl)cc1 | active: 1.78 µM [quencher]
8 | Cc1ccc2oc(-c3cccc(NC(=O)/C=C/c4cccc([N+](=O)[O-])c4)c3C)nc2c1 | inconclusive [rising, single point]
9 | O=C(O)CC(C(=O)O)N1C(=O)/C(=C/c2ccc(-c3nc4ccccc4s3)o2)SC1=S (stereo not drawn) | inactive
10 | CC1=[N+](C)c2ccc3ccccc3c2C1(C)C | active: 4.47 µM [fluorescent]
11 | CCCn1c2ccccc2c2cnn(CC(=O)Nc3cc(OC)c(OC)c(OC)c3)c(=O)c21 | active: 17.8 µM [quencher]
12 | O=[N+]([O-])c1ccc(-c2cn3nc(-c4ccccc4)c(-c4ccccc4)nc3n2)cc1 | inconclusive [rising, single point]
13 | Cc1cc2c(nc1C)CCCN2C[C@H](C)O/N=C\[C@@H](C)[C@H](OCc1ccccc1)C(C)C | inconclusive [quencher, partial curve]
14 | O=C(O)c1cc(Oc2ccc([N+](=O)[O-])cc2)cc(Oc2ccc([N+](=O)[O-])cc2)c1 | inactive
15 | Cc1ccc(C)c(N2CCN(C(=O)c3c4c(nc5ccccc35)C(=O)N(C3CCCCC3)C4)CC2)c1 | inconclusive [quencher, full curve]
16 | O=C(COCc1cc(-c2ccco2)on1)Nc1ccc(OC(F)(F)F)cc1 | inconclusive [quencher, full curve]
17 | CCN(CC)c1ccc2cc(C(=O)NNC(=O)c3ccc(S(=O)(=O)N4CCCCC4)cc3)c(=O)oc2c1 | inconclusive [falling, full curve, poor fit]
18 | CCOc1ccc(CNC(=O)Cn2ncc3c(=O)oc4ccc(C)cc4c32)cc1 | inactive
19 | Cc1ccc2ncc3c(-c4ccccc4)nn(CC(=O)NC4CCCCC4)c3c2c1 | inconclusive [falling, full curve, poor fit]
20 | CC[C@@H]1C(c2ccccc2)=NN(c2ccccc2)[C@H]1C(=O)N1CCOC1=O | inconclusive [falling, partial curve, poor fit]
21 | Cc1cccc(S(=O)(=O)c2cn(Cc3ccccc3)c3cc(N4CCCC(C)C4)c(F)cc3c2=O)c1 (stereo not drawn) | inconclusive [quencher, full curve]

Row | SMILES | Potency
22 | O=C(c1ccc(Cl)c([N+](=O)[O-])c1)N(Cc1cccc(Cl)c1)C1CCS(=O)(=O)C1 (stereo not drawn) | active: 112 µM [quencher]
23 | Cc1cc(-c2cccc([N+](=O)[O-])c2)nc2ccccc12 | inconclusive [falling, partial curve, poor fit]
24 | Cn1c(-c2ccccc2)c(C(=O)CC#N)c2ccccc21 | inactive
25 | Cc1ccccc1NC(=O)CSc1nc2c(oc3ccccc32)c(=O)n1-c1ccccc1F | inconclusive [falling, full curve, poor fit]
26 | COc1ccc(-n2ccn(Cc3ccc(C)cc3)c(=O)c2=O)cc1OC | inconclusive [quencher, partial curve]
27 | O=C(CSc1ccc2ccccc2n1)Nc1nsc(-c2ccc(Cl)cc2)n1 | inconclusive [quencher, full curve]
28 | COc1ccc(-n2c(C)cc(-c3csc(N)n3)c2C)cc1 | inconclusive [quencher, full curve]
29 | CCCOc1ccc(C(=O)Nc2ccc3oc(-c4ccc(N(C)C)cc4)nc3c2)cc1 | inconclusive [falling, full curve, poor fit]
30 | Cc1ccnc2nc(C(=O)OCC(=O)NCCc3ccccc3)nn12 | inconclusive [falling, partial curve, poor fit]
31 | Cc1ccc(CCNC(=O)CCS(=O)(=O)c2cc3c(cc2Cl)NC(=O)CO3)cc1 | inactive
32 | CC(=O)Nc1nc(SCCCc2ccccc2)n[nH]1 | inactive
33 | CCOC(=O)c1ccc(NC(=O)Nc2ccc(OC)c(OC)c2)cc1 | inactive
34 | CC1=C(C(=O)Nc2ccccc2)C(c2ccc[nH]2)n2ncnc2N1 (stereo not drawn) | inconclusive [falling, partial curve, poor fit]
35 | Cc1ccc(S(=O)(=O)N2CCCC2C(=O)OCc2ccco2)cc1 (stereo not drawn) | inactive
36 | Cc1ccc(CNC(=O)C2CCN(S(=O)(=O)c3cccs3)CC2)o1 | inactive
37 | O=C1C[C@@H]2CCN3C(=O)CCC[C@@H]([C@H]23)[C@H]1Cc1ccccc1 | inconclusive [falling, full curve, poor fit]
38 | CCCS(=O)(=O)c1ncc(Cl)c(C(=O)Nc2c(C(=O)Nc3ccccc3)oc3ccccc23)n1 | inconclusive [quencher, partial curve]
39 | COC(=O)c1cc2sccc2n1CC(=O)Nc1ccc(OC)c(OC)c1 | inconclusive [falling, partial curve, poor fit]
40 | CCOc1cc(/C=C2/SC(=S)N(CC3CCCO3)C2=O)ccc1O (stereo not drawn) | inactive
41 | CN(CC(=O)NCc1ccc(F)cc1)S(=O)(=O)c1ccc2[nH]c3c(c2c1)CCCC3 | active: 17.8 µM [quencher]
42 | COc1ccc(-n2c(=S)[nH]c3cc(C(=O)Nc4cccc(C)c4)ccc3c2=O)cc1 | inconclusive [falling, partial curve, poor fit]

Row | SMILES | Potency
43 | COC(=O)c1ccccc1NC(=O)c1cn2c3c(ccc(Cl)c3c1=O)OC(C)C2 (stereo not drawn) | inconclusive [quencher, full curve]
44 | COc1cccc2c1C(=O)c1c(O)c3c(c(O)c1C2=O)C[C@](O)(C(C)=O)C[C@H]3O[C@@H]1C[C@H](N)[C@H](O)[C@H](C)O1 | active: 14.1 µM [fluorescent]
45 | Cc1ccc(CNC(=O)CCCN2C(=O)CCn3nc(-c4cccn4C)cc32)cc1 | inconclusive [falling, full curve, poor fit]
46 | CCOC(=O)c1ccc(-c2ccc(/C=N/NC(=O)CN(c3ccccc3Cl)S(C)(=O)=O)o2)cc1 | inconclusive [falling, partial curve, poor fit]
47 | NC1=NC(c2cc(F)cc(F)c2)n2c(nc3ccccc32)N1 (stereo not drawn) | inconclusive [falling, full curve, poor fit]
48 | COc1cc(CNc2ccc3[nH]c(=O)[nH]c3c2)cc(Br)c1OCc1ccccc1F | inconclusive [falling, partial curve, poor fit]
49 | COc1ccc(CNC(=O)C(=O)Nc2cccc(C)c2C)cc1 | inconclusive [quencher, full curve]
50 | O=c1c(-c2cc(-c3ccccc3)nc3c2COc2ccccc2-3)coc2ccc(Cl)cc12 | active: 20 µM [quencher]
51 | COCCNC(=O)CN1C(=O)COc2ccc(S(=O)(=O)N3CCCC3)cc21 | inconclusive [falling, full curve, poor fit]
52 | Cc1nnc(SCC(=O)Nc2ccc(N(C)C)cc2)[nH]c1=O | inconclusive [falling, partial curve, poor fit]
53 | COC(=O)c1c(-c2cccs2)csc1NC(=O)c1ccc(C)cc1 | inactive
54 | Cc1cc(NC(=O)c2cc(-c3ccc(Cl)c(Cl)c3)on2)n(-c2ccccc2)n1 | inconclusive [falling, full curve, poor fit]
55 | O=C(O)C(c1ccc(Cl)cc1)c1ccc(Cl)cc1 | inactive
56 | Oc1ccc(N=Cc2sc3ccccc3c2Cl)cc1 | inconclusive [fluorescent, partial curve]
57 | Cc1cc(C)nc(SCC(=O)N/N=C/c2cccn2-c2cccc(C(F)(F)F)c2)n1 | inactive
58 | O=C(Cn1cnc2c(oc3ccccc32)c1=O)Nc1ccc(F)cc1F | inconclusive [falling, full curve, poor fit]
59 | C/C(=N\NC(=O)c1cc2ccccc2cc1O)c1ccc2c(c1)OCO2 | active: 35.5 µM [quencher]
60 | CCCc1ccc(-c2ccc(C(=O)Oc3ccc(OCC)cc3)cc2)nc1 | inconclusive [falling, full curve, poor fit]
61 | COc1ccc(CNC(=O)CSc2nc(-c3ccc(OC)c(OC)c3)cc(C(F)(F)F)n2)cc1 | inconclusive [falling, full curve, poor fit]
62 | CCCC(C)NC(=O)COc1ccc(Sc2ccc(OCC(=O)NC(C)CCC)cc2)cc1 (stereo not drawn) | inconclusive [falling, full curve, poor fit]
63 | CCN(CC)c1cc2c(cc1F)c(=O)c(S(=O)(=O)c1ccc(OC)cc1)cn2Cc1ccccc1 | active: 112 µM [quencher]
